The whole screen tested about 340,000 compounds, of which about 6,900 (2%) were called active. Rule as the data show it: active = inhibition above about 30%; inactive = below that, where a call was filed. The entries are a selection whose mix differs from that of the whole data set. Where no call is shown, the source filed none.
These compounds were tested against D(2) dopamine receptor (Homo sapiens) (UniProt P14416) (assay: HTS Assay for Allosteric Antagonists of the Human D2 Dopamine Receptor: Primary Screen for Antagonists). Settings: HEK293 TREx D2 cells, calcium flux, dopamine EC80; at 10 µM; stronger effect = higher value.
Chain of UniProt P14416 (P14416 whole entry, looked up): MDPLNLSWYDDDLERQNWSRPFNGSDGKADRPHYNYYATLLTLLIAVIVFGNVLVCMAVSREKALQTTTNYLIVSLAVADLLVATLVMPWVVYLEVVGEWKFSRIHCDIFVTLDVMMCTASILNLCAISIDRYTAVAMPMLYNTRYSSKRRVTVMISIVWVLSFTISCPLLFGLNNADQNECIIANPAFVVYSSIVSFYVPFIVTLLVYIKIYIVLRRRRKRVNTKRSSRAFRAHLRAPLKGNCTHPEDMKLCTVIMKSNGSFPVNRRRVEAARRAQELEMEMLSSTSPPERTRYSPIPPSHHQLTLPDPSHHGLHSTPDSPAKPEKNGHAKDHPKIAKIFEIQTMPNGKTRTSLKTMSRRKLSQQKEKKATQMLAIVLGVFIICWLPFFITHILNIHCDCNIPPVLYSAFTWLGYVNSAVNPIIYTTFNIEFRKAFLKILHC
Excerpt: NIH Chemical Genomics Center [NCGC] NIH Molecular Libraries Probe Centers Network [MLPCN] MLPCN Grant: NS064831-01 Assay Submitter (PI): David Sibley Dopamine receptors (DARs) are involved in the etiology and/or therapy of a number of neuropsychiatric and endocrine disorders. For instance, all receptor-based antiparkinsonian drugs work via stimulating the D2 DAR subtype whereas all FDA-approved antipsychotic agents are antagonists of this receptor. […] There are three different types of allosteric modulators that we are seeking, two of which will stimulate or augment receptor signaling, allosteric agonists and potentiators, while the third, allosteric antagonists, will attenuate receptor signaling. The present primary screening assay measures compound antagonism after an EC80 addition of dopamine by tracking calcium flux in a […], inducible Hek293 Trex D2 cell line.
Freshly passaged cells are plated in 1536 well black, clear bottom plates at a density of 4000 cells/well in 3 ul of complete media containing 1x tetracycline inducer. After an overnight incubation at 30 C in 5% CO2, cells are loaded with 2 ul of the no wash Calcium Assay Kit (ABD Bioquest) and incubated at room temperature for 30 to 90 minutes. Agonist read: A 10 cycle (1 second/cycle) baseline measurement is taken and then the FDSS online 1536 pintool delivers 23 nl of compound library (as well as dopamine controls) to the plate. The plate is measured for kinetically at 1 cycle/sec for 180 seconds. Following the 180 second read, 1 ul of an EC80 (negative modulation assay) is delivered by an onboard pipette head. Measurements are taken kinetically for an additional 180 seconds.
For `CCOc1cc(S(=O)(=O)NCCc2c(C)[nH]c3ccc(C)cc23)ccc1F`, the inhibition was -19.5%.
Compound `COc1ccc(C)cc1NC(=O)c1sc2nc(-c3ccc(F)cc3)cn2c1C` has an inhibition of 8.38%.
`Cc1ccc(Cn2c(C)c3cnn(CC(=O)O)c(=O)c3c2C)cc1` gave an inhibition of -1.51%.
Compound `O=C(Cn1cc(SCc2ccc(F)cc2)c2ccccc21)N1CCCCC1` has an inhibition of 9.92%.
With `CCCSc1oc(-c2cccs2)nc1S(=O)(=O)c1ccc(C)cc1` the inhibition was 6.5%.
`COc1ccc(NC(=O)Cn2c(=O)n(CCCCCC(=O)NCc3ccc4c(c3)OCO4)c(=O)c3sccc32)cc1Cl` was tested, and the inhibition was 1.68%.
With `O=C(Nc1cccc(C(=O)OCc2cc(=O)n3c4c(sc3n2)CCCC4)c1)c1ccc(Cl)cc1` the inhibition was 9.13%.
In the case of `CC1(C)Cc2c(sc3nc(SCC(=O)NCc4ccco4)n(-c4ccccc4)c(=O)c23)CS1`, the inhibition is reported as active: 30.4%.
`CCc1nnc(SCc2cccc(Cl)c2)c2cc3sccc3n12` showed an inhibition of -5.07%.
Work on `CCOc1cccc(C(=O)Nc2ccc3oc(-c4ccncc4)nc3c2)c1` yielded an inhibition of 0.369%.
For `Cc1cc(C)c(NC(=O)CSc2nc3nccnc3c(=O)n2CCc2c[nH]c3ccccc23)c(C)c1`, the inhibition was -6.34%.
Compound `COc1cc(OC)c(NS(=O)(=O)c2c(C)nc3sc(C)cn3c2=O)cc1Cl` has an inhibition of 3.92%.
For `COc1ccc(-c2cc(OC(=O)c3ccccc3Cl)c3c(C)oc(C)c3c(=O)c2)cc1OC`, the inhibition was 9.43%.
In the case of `COc1ccc(CNC(=O)CN2C(=O)COc3ccc(S(=O)(=O)N4CCCCC4)cc32)cc1`, the inhibition is reported as 2.1%.
For `Cc1ccc(-c2noc(-c3cccnc3NCc3ccco3)n2)cc1`, the inhibition was 7.41%.
Work on `COc1ccc2c(CNC3CCCCCC3)c(C(=O)O)n(Cc3ccc(C)cc3)c2c1` yielded an inhibition of -13%.
Work on `Cc1cc(F)ccc1NC(=O)Cn1nc(N2CCN(c3ccccc3)CC2)ccc1=O` yielded an inhibition of 2.06%.
`COc1ccc(CCNC(=O)C(=O)NCC(c2cccs2)S(=O)(=O)c2cccs2)cc1` (stereo unspecified) showed an inhibition of -26.4%.
With `COc1ccc(C(=O)n2nc(-c3cccnc3)nc2NCc2ccccc2)cc1OC` the inhibition was 9.91%.
`CCOc1ccccc1Nc1nc2ccccc2nc1NS(=O)(=O)c1ccc(Cl)cc1` was tested, and the inhibition was 2.39%.
`CCOC(=O)c1oc2cccc(OC(C)=O)c2c1C` was tested, and the inhibition was active: 36.7%.
Work on `COc1ccccc1CNc1ncnc2onc(-c3ccc(F)cc3)c12` yielded an inhibition of -1.62%.
`CC(=O)N1CCCc2cc(S(=O)(=O)N3CCC(C(=O)Nc4c(C)cccc4C)CC3)ccc21` gave an inhibition of -9.43%.
For `COc1cccc(-c2cc(=O)c3cc(NC(C)=O)ccc3[nH]2)c1`, the inhibition was active: 33.8%.
In the case of `COc1ccc(-c2nc(CN3CCC(C(=O)NCc4ccc(C)cc4)CC3)c(C)o2)cc1OC`, the inhibition is reported as -21.9%.
For `CCOc1ccc(CNC(=O)CCCn2c(=O)c3cccn3c3ccccc32)cc1`, the inhibition was -7.9%.
`CCOc1ccc(NC(=O)c2cn(C3CCCCC3)c(=O)c3c2c2ccccc2n3C)cc1` gave an inhibition of -0.156%.
`Cc1cccc(C(=O)Nc2ccccc2OCc2cc(=O)n3ccccc3n2)c1` was tested, and the inhibition was 5.34%.
With `COc1ccc(CCC(C)N2CCC(Oc3ccc(C(=O)N4CCCC4)cc3)CC2)cc1` (stereo unspecified) the inhibition was active: 30.4%.
In the case of `Cc1ccc(-c2nnc(SCC(=O)NC(C)(C)C)nc2-c2ccc(C)cc2)cc1`, the inhibition is reported as 18.5%.
Compound `Cn1c(=O)c2c(nc(NCCc3ccccc3)n2Cc2ccccc2Br)n(C)c1=O` has an inhibition of -10.9%.
In the case of `Cc1onc(-c2ccccc2)c1C(=O)OCCOc1ccccc1F`, the inhibition is reported as active: 37.6%.
For `COc1cccc2c1cc1c(=O)n(CC(=O)N3CCN(c4ccc(F)cc4)CC3)nc(C)n12`, the inhibition was 7.45%.
With `CS(=O)(=O)N1CCN(c2ccccc2NC(=O)c2cccnc2Cl)CC1` the inhibition was active: 32.8%.
For `COc1ccc2nc(SCC(O)c3cccc(Br)c3)[nH]c2c1` (stereo unspecified), the inhibition was 7.19%.
For `CCCS(=O)(=O)c1nc(S(=O)(=O)c2ccc(C)cc2)c(NCCCOC(C)C)s1`, the inhibition was 6.38%.
With `Cc1ccc(Sc2ccc(N3CCCC(C(=O)Nc4ccc(F)cc4)C3)nn2)cc1` (stereo unspecified) the inhibition was 8.05%.
`Cc1nn(-c2ccc(N3CCCCC3)nn2)c(C)c1CCC(=O)NCc1ccccc1` was tested, and the inhibition was 4.1%.
For `CCN(CC)C(=O)CSc1nc2cc3c(cc2c(=O)n1CCCC(=O)NCc1ccc2c(c1)OCO2)OCO3`, the inhibition was 15.3%.
In the case of `COc1ccc(-c2cn3c(n2)sc2cc(C(=O)NCCCc4ccccc4)ccc23)cc1`, the inhibition is reported as 20.4%.
Compound `O=C(Cn1nc(N2CCN(c3ccccc3)CC2)ccc1=O)NCc1ccccc1F` has an inhibition of -3.25%.
In the case of `CCc1nc2ccccc2n1CCCCOc1cccc(C)c1`, the inhibition is reported as -4.87%.
In the case of `CCCOc1ccc(NC(=O)CC2C(=O)N(c3ccc(OC)cc3)C(=O)N2CCc2ccncc2)cc1` (stereo unspecified), the inhibition is reported as -1.63%.
`CCOC(=O)c1cc(-c2ccccc2)n(CCCC(=O)Nc2cccc(C)c2)c1C` gave an inhibition of -9.16%.
For `CC(C)(C)c1ccc(S(=O)(=O)c2cnc(SCC(=O)Nc3ccc4c(c3)OCCO4)[nH]c2=O)cc1`, the inhibition was 7.54%.
For `CC(C)CC(=O)NCC(c1ccc2c(c1)OCO2)N1CCN(c2ccc(F)cc2)CC1` (stereo unspecified), the inhibition was -0.969%.
Work on `CCOC(=O)c1ccc(Oc2nc(C)nc3c2oc2ccccc23)cc1` yielded an inhibition of 3.71%.
`COC(=O)c1cc(NC(=O)CN(c2ccccc2OC)S(=O)(=O)c2ccccc2)ccc1Cl` was tested, and the inhibition was active: 35.6%.
Work on `O=C(/C=C/c1ccccc1)Nc1nc2n(n1)C(c1ccc(Cl)cc1)C=C(c1ccccc1)N2` (stereo unspecified) yielded an inhibition of 15.6%.
Compound `Cc1nnsc1C(=O)Oc1ccc(C#N)cc1` has an inhibition of 6.32%.
In the case of `O=C(CN1C(=O)C2(SCC(=O)N2c2cccc(F)c2)c2ccccc21)NCc1ccccc1Cl` (stereo unspecified), the inhibition is reported as -9.4%.
With `COc1ccccc1N1CCN(CCCNC(=O)C2CCCN(c3ncnc4c3nc3n4CCCCC3)C2)CC1` (stereo unspecified) the inhibition was active: 76.1%.
In the case of `Clc1ccc(CN2CCc3nc(N4CCN(c5ccccn5)CC4)ncc3C2)cc1`, the inhibition is reported as 14.5%.
`Oc1ccc(-c2ccccc2)cc1CN1CCCCCC1` was tested, and the inhibition was active: 69%.
`Cc1ccc(CN2c3ccccc3-c3nc(SCC(=O)NCCc4ccccc4)ncc3S2(=O)=O)cc1` gave an inhibition of 3.75%.
In the case of `Cn1nccc1C(=O)N1CCc2ccccc21`, the inhibition is reported as active: 35.8%.
For `O=C(Nc1ccc(C(F)(F)F)cc1)c1cc(S(=O)(=O)N2CCCc3ccccc32)ccc1F`, the inhibition was 16.6%.
Work on `CCn1ccc2cc(S(=O)(=O)N3CCC(C(=O)NCC(C)c4ccccc4)CC3)ccc21` (stereo unspecified) yielded an inhibition of -7.38%.
In the case of `COc1ccc(S(=O)(=O)Nc2cc(-c3cn4ccc(C)cc4n3)ccc2C)cc1OC`, the inhibition is reported as -6.54%.
`Cc1nnc2c3ccccc3nc(Nc3ccccc3C(=O)O)n12` was tested, and the inhibition was -9.14%.
`Cc1ccc(NCc2cc3cc4c(cc3n(CC(=O)Nc3ccc(F)cc3F)c2=O)OCCO4)cc1` showed an inhibition of -12.9%.
`CCOc1ccc(S(=O)(=O)NCc2ccc3c(c2)CCN3C(=O)c2ccc(C)cc2)cc1` was tested, and the inhibition was 2.83%.
Work on `O=C(COc1ccc(Cl)cc1)Nc1ccc2nc(SCC(=O)N3CCOCC3)sc2c1` yielded an inhibition of -13.8%.
`COc1cccc(CNC(=O)C2CCN(Cc3cc4ccccc4n3Cc3ccccc3)CC2)c1OC` showed an inhibition of -4.89%.
Work on `Cc1ccc(Cl)cc1NC(=O)c1nnn(Cc2ccccc2)c1N` yielded an inhibition of -22.9%.
With `Cc1ccc(NC(=O)CSc2nc3ccccc3nc2Cc2ccccc2)c(Cl)c1` the inhibition was -7.83%.
In the case of `Cc1ccc(C)c(NC(=O)c2cc(S(=O)(=O)N3CCN(c4cccc(Cl)c4)CC3)ccc2F)c1`, the inhibition is reported as 13.1%.
`CCN(Cc1ccccc1)C(=O)C1CCC(CNS(=O)(=O)c2ccc3c(c2)CCCC(=O)N3)CC1` (stereo unspecified) was tested, and the inhibition was -0.601%.
`CCc1ccc(Nc2nc3c(S(=O)(=O)c4ccc(C)cc4)nnn3c3ccsc23)cc1` was tested, and the inhibition was 10.9%.
In the case of `Cc1ccc(S(=O)(=O)c2nnn3c2nc(N2CCCC(C)C2)c2cc(Cl)ccc23)cc1C` (stereo unspecified), the inhibition is reported as 9.52%.
`O=C(Nc1ccccc1C(F)(F)F)c1noc2c1CCCC2` showed an inhibition of -1.77%.
`Cc1ccc(NC(=O)Cn2c(=O)n(-c3ccccc3)c(=O)c3ccc(C(=O)NCc4ccc5c(c4)OCO5)cc32)cc1` was tested, and the inhibition was -14%.
Compound `CCN1CCC(N(Cc2ccc3c(c2)OCO3)C(=O)Nc2cccc(C)c2C)CC1` has an inhibition of -4.93%.
Compound `Cc1ccc2nc(-c3cccc(NC(=O)CSc4ccc(Cl)cc4)c3)oc2c1` has an inhibition of -1.28%.
With `CC(=O)N1CCCc2cc(S(=O)(=O)NCc3ccccc3Cl)ccc21` the inhibition was 0.001%.
`CCOc1ccccc1NC(=O)Cn1c(=O)n(-c2ccc(C)c(C)c2)c(=O)c2oc3ccccc3c21` showed an inhibition of 16.1%.
Work on `O=C(Oc1ccccc1F)c1nc(SCc2ccccc2F)ncc1Cl` yielded an inhibition of -9.82%.
Work on `COc1ccccc1NC(=O)Cn1nc2c3cc(F)ccc3n(Cc3cccc(C)c3)cc-2c1=O` yielded an inhibition of 4.56%.
`CCOC(=O)c1cc(C)n(CC2CCC(C(=O)Nc3ccc(OC)c(OC)c3)CC2)c1C` (stereo unspecified) was tested, and the inhibition was -0.0337%.
`Cc1ccc2oc(C(=O)Nc3ccc(S(=O)(=O)N4CCCCCC4)cc3)cc(=O)c2c1` showed an inhibition of 1.29%.
In the case of `NS(=O)(=O)c1cccc(NC(=O)COC(=O)C2(c3cccc(F)c3)CCCC2)c1`, the inhibition is reported as active: 50.8%.
With `Cc1cc(C)cc(NS(=O)(=O)c2c(C)nc3scc(C)n3c2=O)c1` the inhibition was -1.62%.
`CCc1ccc(NC(=O)c2sc(-n3nc(C)c(Cc4ccc5c(c4)OCO5)c3C)nc2C)cc1` showed an inhibition of 21.8%.
With `Cc1ccc(S(=O)(=O)c2nnn3c2nc(NC2CCCCC2)c2sccc23)cc1` the inhibition was -3.77%.
`CN(C)S(=O)(=O)c1ccc2c(c1)nnn2CCNC(=O)Nc1ccc(Cl)cc1` was tested, and the inhibition was -4.59%.
`Cc1ccc(Cc2cn3cc(-c4ccccc4)nc3s2)cc1` was tested, and the inhibition was 2.69%.
Compound `Cc1ccc(C)c(Oc2nc3c(c(=O)n(C)c(=O)n3C)n2Cc2ccccc2)c1` has an inhibition of -15.4%.
`O=C(Oc1cccc2ccccc12)c1ccncc1` was tested, and the inhibition was active: 34%.
`Cc1cc(/C(N)=N/OC(=O)c2cccc(Cl)c2)no1` was tested, and the inhibition was active: 49.8%.
`Cc1ccc(Cn2c(=O)n(Cc3ccco3)c(=O)c3oc4ccccc4c32)cc1` gave an inhibition of 2.55%.
`Cc1cc(C)c(OCCCCNCc2ccccc2)c(Cl)c1` was tested, and the inhibition was active: 49%.
`Cc1ccc(C)c(NC(=O)CSc2nc3c([nH]c4ccccc43)c(=O)n2-c2ccc(F)cc2)c1` showed an inhibition of 9.3%.
Compound `CCOc1ccc(OCC)c(NC(=O)c2cnc(SC)nc2-c2ccccc2)c1` has an inhibition of -23%.
In the case of `Clc1ccc(-c2ccc(CN3CCCCC3)o2)cc1`, the inhibition is reported as active: 78.2%.
Work on `COc1ccc(CC(=O)NCC(c2ccc(Cl)cc2)N2CCOCC2)cc1` (stereo unspecified) yielded an inhibition of -9.34%.
`Cc1ccc(C)c(Cn2c(=O)n(-c3ccc(Cl)cc3)c(=O)c3c(C)c(C)sc32)c1` gave an inhibition of 4.62%.

From PubChem BioAssay AID485344 (National Center for Advancing Translational Sciences (NCATS), 2010)
Also: 0% is about no effect.
